The values that follow come from PubChem BioAssay AID588579 (National Center for Advancing Translational Sciences (NCATS), 2011).

Where “and” joins values, the source holds several entries; their conditions need not be identical. Identical values can stand only once. The whole screen tested about 400,000 compounds, of which about 2,200 (0.55%) were called active. Not shown: some 1% with an inconclusive outcome. The call rests on the fitted dose curve; in most records, active means well fitted inhibition curve with a large enough effect; inconclusive means small, poorly fitted or top-dose-only effect, or another doubt; inactive means no such curve, though single readings can be large or run the other way. The entries are a selection whose mix differs from that of the whole data set. The source holds several records for some structures; these can differ, active in one and inactive in another.
On the % scale 0 is the no-effect control and ±100 the full control effect; potency means the concentration at half of the fitted maximal effect.

Chain of UniProt Q9UBT6 (Q9UBT6 whole entry, looked up): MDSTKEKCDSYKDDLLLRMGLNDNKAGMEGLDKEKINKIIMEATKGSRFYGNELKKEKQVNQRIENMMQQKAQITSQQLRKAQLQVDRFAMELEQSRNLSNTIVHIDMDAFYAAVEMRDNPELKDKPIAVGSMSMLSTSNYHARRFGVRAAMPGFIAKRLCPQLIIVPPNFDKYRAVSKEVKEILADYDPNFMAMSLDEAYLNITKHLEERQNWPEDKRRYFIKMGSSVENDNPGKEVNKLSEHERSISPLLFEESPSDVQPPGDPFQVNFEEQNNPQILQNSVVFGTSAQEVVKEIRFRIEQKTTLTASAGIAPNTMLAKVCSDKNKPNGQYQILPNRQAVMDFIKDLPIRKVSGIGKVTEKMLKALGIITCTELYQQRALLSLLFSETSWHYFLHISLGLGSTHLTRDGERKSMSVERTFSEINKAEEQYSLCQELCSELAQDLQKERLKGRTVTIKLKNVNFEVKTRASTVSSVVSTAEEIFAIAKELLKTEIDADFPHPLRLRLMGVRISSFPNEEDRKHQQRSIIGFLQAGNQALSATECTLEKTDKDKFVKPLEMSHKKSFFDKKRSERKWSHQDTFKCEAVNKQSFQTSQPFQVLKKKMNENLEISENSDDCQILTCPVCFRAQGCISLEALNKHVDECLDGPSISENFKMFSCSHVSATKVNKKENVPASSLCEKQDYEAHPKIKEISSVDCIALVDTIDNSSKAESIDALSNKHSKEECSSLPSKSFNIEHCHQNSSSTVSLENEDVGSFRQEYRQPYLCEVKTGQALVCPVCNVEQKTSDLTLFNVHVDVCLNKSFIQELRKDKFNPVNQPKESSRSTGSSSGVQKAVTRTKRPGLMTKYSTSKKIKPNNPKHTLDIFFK

This assay concerns the target DNA polymerase kappa (Homo sapiens) (UniProt Q9UBT6). Description: qHTS for Inhibitors of Polymerase Kappa. The settings on record: purified Pol kappa, fluorescent DNA synthesis assay, 10 min; series mostly up to 107 µM; activity, negative = inhibition: at the top concentration. The method in brief:
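Inhibition of 10 nM Pol kappa is measured by a fluorescent read-out at 0 and 10 min following addition of 50 nM substrate (final), with a 15-min room-temperature compound preincubation.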
A general note: qHTS replaces the single test concentration by a dilution series.
With `COc1cc(OC)c2c(=O)cc(-c3ccccc3)oc2c1`, the “activity, negative = inhibition” value was inactive: 24.5%. `O=C(OCCc1ccccc1)c1cc(O)c(O)c(O)c1`: the Potency was active: 44.7 µM.

As to `Cc1c(C(=O)OCCOC(C)C)[nH]c2c1C(=O)CC(c1ccco1)C2` (configuration not stated), the Potency is active: 79.4 µM.

On to `O=C1Nc2ccccc2/C1=N\N=C\c1ccc(O)c(O)c1`, for which the Potency is active: 5.62 µM. Turning to `CC1OC(OCC2OC(Oc3c(-c4ccc(O)cc4)oc4cc(O)cc(O)c4c3=O)C(O)C(O)C2O)C(O)C(O)C1O` (configuration not stated), the Potency is active: 28.2 µM. In the case of `CC[C@]1(O)CC2CN(CCc3c([nH]c4ccccc34)[C@@](C(=O)OC)(c3cc4c(cc3OC)N(C)[C@H]3[C@@](O)(C(=O)OC)[C@H](OC(C)=O)[C@]5(CC)C=CCN6CC[C@]43[C@@H]65)C2)C1` (some centres not stated), the Potency entry is “inactive”. For `OCC1OC(O)C(O)C(O)C1O` (configuration not stated), the “activity, negative = inhibition” value was inactive: -3.12% [at 60.1 µM].

For the compound `COC(=O)C1C(O)CC[C@H]2CN3CCc4c([nH]c5ccccc45)C3C[C@H]12` (some centres not stated), the “activity, negative = inhibition” value was inactive: -8.89% [at 60.1 µM]. Consider `C=C1c2ccccc2O[C@H](C(=O)OCC)[C@@H]1C1CCCCC1`, for which the “activity, negative = inhibition” value was inactive: -6.72%.

As to `CN(C)c1ccc(/C=C/c2nc3ccccc3s2)cc1`, the “activity, negative = inhibition” value is inactive: -3.57%. In the case of `COc1ccc(C2=Nn3c(nnc3-c3ccccc3OC)SC2)cc1OC1CCCC1`, the Potency is active: 39.8 µM.

For the compound `COC1=CC(=O)C(C2CC(=O)c3c(O)cc(O)cc3O2)=CC1=O` (configuration not stated), the Potency was active: 31.6 µM. In the case of `CC/C=C\C/C=C\C/C=C\C/C=C\C/C=C\CCCC(=O)O`, the activity, negative = inhibition was inactive: -1.43% [at 19.4 µM]. With `COc1ccc([C@@H]2CC(=O)c3c(O)cc(O[C@@H]4O[C@H](CO)[C@@H](O)[C@H](O)[C@H]4OC4O[C@@H](C)[C@H](O)[C@@H](O)[C@H]4O)cc3O2)cc1O` (some centres not stated), the “activity, negative = inhibition” value was inactive: 13.9% [at 60.1 µM]. For `Cc1c(O)ccc(/C=N/Nc2nc(-c3cccnc3)nc3ccccc23)c1O`, the “activity, negative = inhibition” value is inactive: -24.8%.

For `COc1ccc(/C=N/NC(=O)c2cc(O)c(O)c(O)c2)cc1Cn1cc([N+](=O)[O-])cn1`, the Potency was active: 3.98 µM. Turning to `Cc1c(C)c2c(c(C)c1O)CC[C@@](C)(CCC[C@@H](C)CCC[C@@H](C)CCCC(C)C)O2`, the Potency entry is “inactive”. Turning to `CN(C)c1ccc(-c2ccc([C@H]3[C@@H]4C=CCC[C@@]4(C)C(=O)N3Cc3ccccc3)c(F)c2)cc1`, the “activity, negative = inhibition” value is inactive: -5.68%. As to `CN(C)CC[C@H](c1ccc(Cl)cc1)c1ccccn1`, the activity, negative = inhibition is inactive: -4.81% [at 12 µM]. Same read-out and setting: the value for H-KPVGKKRRPVKVYP-OH was inactive: 12.9% [at 60.1 µM]. Regarding `CCC[C@@H]1CCCO[C@@](C(=O)NCc2cc(C)n(C)n2)(C(F)(F)F)C1`, the “activity, negative = inhibition” value is inactive: 1.98%. For the compound `CN(C)S(=O)(=O)c1cc(NC(=O)COC(=O)/C=C/c2ccco2)ccc1Cl`, the Potency was active: 31.6 µM.

Consider `CCOc1ccc(NC(=O)CSc2nc(NS(=O)(=O)c3ccc(C)cc3)cc(=O)[nH]2)cc1`, for which the Potency was active: 39.8 µM. Take `O=C(O)C1Nc2ccc(Br)cc2C2C=CCC12` (configuration not stated): the Potency was active: 10 µM. Regarding `CN1CCCN=C1/C=C\c1cccs1`, the activity, negative = inhibition was inactive: 0.652% [at 12 µM]. With `CCC(=O)Nc1cc2c3c(c1)CCN3C(=O)CC2`, the Potency was active: 79.4 µM. For `CCOC(=O)[C@@H]1[C@H]2COc3cc(OC)ccc3[C@H]2N2C(=O)N(c3cccc(F)c3)C(=O)[C@]12C`, the “activity, negative = inhibition” value is inactive: -3.87%.

For `C=C1CC[C@@H]2[C@](C)(CO)[C@H](O)CC[C@@]2(C)[C@@H]1/C=C/C1=CCOC1=O`, the “activity, negative = inhibition” value was inactive: -7.49%. For `O=C(O)[C@@H]1C[C@@H](C(=O)O)N1`, the Potency result was “inactive”.

Consider `CC(=O)c1ccc(S(=O)(=O)N2CCN(C(=O)/C=C/c3ccc4ccccc4n3)CC2)cc1`, for which the Potency is active: 79.4 µM.

In the case of `O=C1CC(=O)NC(SCC(=O)Nc2ccccc2[N+](=O)[O-])=N1`, the Potency was active: 39.8 µM. Consider `COc1cc(NC(=O)c2cccs2)c(C(=O)OCC(=O)NCc2ccco2)cc1OC`, for which the Potency is active: 79.4 µM. For `Nc1ccc(O)c2c1C(=O)c1ccccc1C2=O`, the Potency was active: 28.2 µM.

As to `CC(N=Cc1cccc(O)c1O)c1ccccc1` (configuration not stated), the Potency was active: 12.6 µM. Take `CCOC(=O)COc1ccc2c(C)c(CCN(CC)CC)c(=O)oc2c1Cl`: the Potency result was “inactive”. For `Cc1ccc(/C(=C\CN2CCCC2)c2ccccn2)cc1`, the Potency result is “inactive”. For `O=C(N/N=C/c1ccc([N+](=O)[O-])o1)c1ccc(O)cc1`, the “activity, negative = inhibition” value is inactive: -23.1%.

On to `CC(C)=CCc1c(O)cc2oc3c(CC=C(C)C)c(O)c(O)c(CC=C(C)C)c3c(=O)c2c1O`, for which the Potency was active: 79.4 µM. `COCc1cc(O)c(O)c(O)c1-c1c(COC)cc(O)c(O)c1O`: the Potency was active: 794 nM and active: 316 nM and active: 212 nM.

Consider `O=c1cc(O)nc(SCc2ccccc2)n1-c1ccccc1`, for which the “activity, negative = inhibition” value was inactive: -31.9%. Take `Cn1cc(C2=C(c3ccc(Cl)cc3Cl)C(=O)NC2=O)c2ccccc21`: the Potency result is “inactive”. On to `Cn1c(SCC(=O)N/N=C/C=C/c2ccco2)nc2ccccc21`, for which the Potency was active: 79.4 µM. For `Cc1ccc(C(=O)Nc2ccc(S(=O)(=O)O)c3cc(S(=O)(=O)O)cc(S(=O)(=O)O)c23)cc1NC(=O)c1cccc(NC(=O)Nc2cccc(C(=O)Nc3cc(C(=O)Nc4ccc(S(=O)(=O)O)c5cc(S(=O)(=O)O)cc(S(=O)(=O)O)c45)ccc3C)c2)c1`, the “activity, negative = inhibition” value was inactive: -98.8%. In the case of `CCCCCCCCCCC(C)(C)C(=O)Nc1c(OC)cc(OC)cc1OC`, the “activity, negative = inhibition” value was inactive: -22.6%.

Regarding `CC[C@@H]1C(c2ccccc2)=NN(c2ccccc2)[C@H]1C(=O)N1CCOC1=O`, the “activity, negative = inhibition” value is inactive: 3.54%.

As for `CC(C)[C@@H]1NC(=O)[C@H](Cc2ccccc2)NC(=O)[C@@H](CC(=O)O)NC(=O)CNC(=O)[C@H](CCCNC(=N)N)NC1=O`, the activity, negative = inhibition was inactive: 4% [at 19.4 µM]. Turning to `CC(C)C[C@@H](C(=O)N[C@@H](Cc1c[nH]c2ccccc12)C(N)=O)N1C[C@]2(CCCN2C(=O)[C@H](Cc2ccccc2)NC(=O)[C@H](Cc2ccccc2)NC(=O)[C@H](CCC(N)=O)NC(=O)[C@H](CCC(N)=O)NC(=O)[C@@H]2CCCN2C(=O)[C@H](CCCCN)NC(=O)[C@@H]2CCCN2C(=O)[C@@H](N)CCCNC(=N)N)CC1=O`, the “activity, negative = inhibition” value is inactive: 17.8% [at 60.1 µM]. In the case of `COc1ccc(C2CC(=O)Oc3ccc(C(C)(C)C)cc32)cc1` (configuration not stated), the “activity, negative = inhibition” value is inactive: -1.04%. Take `CC(O)[C@@H](N)C(=O)O` (some centres not stated): the activity, negative = inhibition was inactive: 7.07% [at 19.4 µM]. For `CN(C)c1ccc(/C=C/C=C/c2ccnc3ccccc23)cc1`, the “activity, negative = inhibition” value is inactive: -18.6%. Same read-out and setting: the result for `C=CCc1ccccc1OC[C@H](O)CNC(C)C` reads inactive: -1.14% [at 12 µM]; that for `COc1ccccc1C1CC(=O)Oc2ccc(C(C)(C)C)cc21` (configuration not stated), inactive: -15%.
